Where “and” joins values, the source holds several entries; their conditions need not be identical. Identical values can stand only once. The shares of active, inactive and inconclusive entries below differ from those in the screen. Where the call is inconclusive, the potency comes from a doubtful curve fit. Where a structure was tested more than once in an assay, its records may differ in their call. Calls of active or inactive are those of the source. The call rests on the fitted dose curve; in most records, active means well fitted cell-killing curve with a large enough effect in the repeat runs; inconclusive means weak or mixed curves; inactive means flat fitted curve, though single readings scatter.
Assay: qHTS assay to identify small molecule antagonists of the estrogen related receptor (ERR) signaling pathway from Tox21 library - cell viability counter screen (AID 1224834); further: nearly all actives have a fitted effect of over 30% in size
Conditions: ERR reporter cells viability, CellTiter-Fluor, 17.5 h; series mostly up to 92.4 µM; viability change, negative = cytotoxic: at the top concentration
How it was run: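 Compounds in DMSO were pinned onto ERR cells that had been incubated for 6 h, and the plates were held at 37 C for 17.5 h. CellTiter-Fluor reagent was then added and fluorescence was measured after 30 min.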
On the % scale 0 is the no-effect control and ±100 the full control effect; potency means the concentration at half of the fitted maximal effect; tags describe the fitted curve by direction and shape.

SMILES | Potency | viability change, negative = cytotoxic
C#C[C@]1(O)CC[C@H]2[C@@H]3CCC4=CC(=O)CCC4=C3C=C[C@@]21CC | active: 21.1 µM | 
CCC1(CCC(C)C)C(=O)NC(=O)NC1=O |  | inactive: -2.3%
CN(C1CCCCC1)C1CCCCC1 |  | inactive: 5.04%
N#Cc1cc(Br)c(O)c(Br)c1 | inactive | 
CCn1cc[n+](C)c1 | active: 30.9 µM | 
CCOP(=S)(NC(C)C)Oc1ccccc1C(=O)OC(C)C (stereo not drawn) | inconclusive: 34.4 µM [cytotoxic, partial curve] | 
CC(C)(C)C(O)(CCc1ccc(Cl)cc1)Cn1cncn1 (stereo not drawn) | inconclusive: 69.4 µM [cytotoxic, partial curve] and inconclusive: 68.6 µM [cytotoxic, single point] | 
C=C1C[C@@H]2[C@H](CC[C@]3(C)C(=O)CC[C@@H]23)[C@@]2(C)C=CC(=O)C=C12 |  | inactive: -9.21% [at 42.5 µM]
C#CCO |  | inactive: 0.655%
CC(=O)c1cc2c(cc1C)C(C)(C)C(C)CC2(C)C (stereo not drawn) | inconclusive: 68.6 µM [cytotoxic, single point] | 
O=[N+]([O-])c1ccc2ccc3cccc4ccc1c2c34 | inconclusive: 17.2 µM [cytotoxic, full curve] | 
C1CCC(NC2CCCCC2)CC1 | inactive | 
CCOC(=O)c1cncn1C(C)c1ccccc1 (stereo not drawn) |  | inactive: 5.81% [at 42.5 µM]
CCOC(=O)NC(C)(C)Cc1ccc(Cl)cc1 |  | inactive: -0.484% [at 42.5 µM]
CNC(=O)NC(O)C(Cl)(Cl)Cl (stereo not drawn) |  | inactive: -2.9% [at 42.5 µM]
O=C1CCCO1 | inactive | 
O=C(CBr)c1ccccc1 | inconclusive: 61.5 µM [cytotoxic, partial curve, poor fit] | 
O=C(NCc1cccnc1)Nc1ccc([N+](=O)[O-])cc1 | inconclusive: 77 µM [cytotoxic, single point] | 
O=c1n(Cl)c(=O)n(Cl)c(=O)n1Cl | inconclusive: 29.8 µM [rising, partial curve, poor fit] | 

SMILES | Potency | viability change, negative = cytotoxic
CC(Cc1ccc(OCC(=O)O)cc1)NCC(O)c1csc(C(F)(F)F)n1 (stereo not drawn) |  | inactive: 1.63%
CCO[C@H]1O[C@@H]2OC3(C)CC[C@H]4[C@H](C)CC[C@@H]([C@H]1C)[C@@]24OO3 | inconclusive: 0.596 µM [cytotoxic, full curve] | 
CCCCCCCCCCCCCCCCCC(=O)O | inconclusive: 24.2 µM [cytotoxic, full curve, poor fit] | 
CNC(=O)O/N=C(\SC)C(=O)N(C)C | inactive | 
CCS(=O)(=O)C(C)(C)S(=O)(=O)CC |  | inactive: 5.37% [at 42.5 µM]
O=NN(c1ccccc1)c1ccccc1 | inactive | 
CC(Cc1ccccc1)NCCn1cnc2c1c(=O)n(C)c(=O)n2C (stereo not drawn) | inconclusive: 75.9 µM [cytotoxic, partial curve, poor fit] | 
CCN(CC)C(=O)C(C)Oc1cccc2ccccc12 (stereo not drawn) | inconclusive: 69.1 µM [cytotoxic, single point] and inconclusive: 1.37 µM [cytotoxic, single point] | 
Clc1ccc(C(OCCN2CCCCC2)c2ccccc2)cc1 (stereo not drawn) | inconclusive: 26.6 µM [cytotoxic, single point] | 
C[N+](C)(C)CC(=O)O | inactive | 
CC1(C)CCC(Cc2ccc(Cl)cc2)C1(O)Cn1cncn1 (stereo not drawn) | inconclusive: 68.6 µM [cytotoxic, partial curve] | 
CC1CN1 (stereo not drawn) |  | inactive: 0.32%
CC#C[C@]1(O)CC[C@H]2[C@@H]3C[C@H](C)C4=CC(=O)CC[C@]4(C)[C@H]3CC[C@@]21C | inconclusive: 33.5 µM [cytotoxic, single point] | 
O=[N+]([O-])c1ccc(Oc2ccc(C(F)(F)F)cc2[N+](=O)[O-])cc1 | inconclusive: 68.6 µM [cytotoxic, partial curve, poor fit] | 
C[N+](C)(C)CCCl |  | inactive: -0.939%
CCC(C)(CC)c1cc(NC(=O)c2c(OC)cccc2OC)on1 | inconclusive: 54.6 µM [cytotoxic, partial curve] and inconclusive: 58.8 µM [cytotoxic, partial curve] | 
C[C@]12CCC(=O)C(O)=C1CC[C@@H]1[C@@H]2CC[C@]2(C)C(=O)CC[C@@H]12 | inconclusive: 54.5 µM [cytotoxic, partial curve] | 
Nc1ccc(Cl)cc1C(=O)c1ccccc1F | inconclusive: 33.5 µM [cytotoxic, single point] | 
CC(=O)[O-].CC(=O)[O-].O.O.[Cd+2] | active: 26.9 µM | 
